A compilation of properties of binary mixtures (doi:10.1007/s10953-012-9891-7)
The densities may have been worked out from excess volumes.

Assay: xn = mol fraction of the nth substance listed
Details: 101 kPa

CCCCCCCCCCCCCC[P+](CCCCCC)(CCCCCC)CCCCCC.[Br-] + CN(C)C=O
mass density [kg/m3]
Details	x2 = 0.1305	x2 = 0.2663	x2 = 0.4341	x2 = 0.525	x2 = 0.6708	x2 = 0.7748	x2 = 0.847	x2 = 0.9068	x2 = 0.9209	x2 = 0.9626
293.15 K	961.2	961.1	960.9	960.6	960	–	957.9	955.8	955.1	952.3
298.15 K	958.1	958	–	957.3	956.5	955.4	–	951.7	950.9	947.9
303.15 K	954.9	954.7	954.3	953.9	953	951.7	950.2	947.6	946.8	943.5
308.15 K	951.8	–	951	–	949.6	–	946.4	943.6	942.7	939.1
313.15 K	948.6	–	947.7	947.2	946.1	944.5	942.6	–	–	934.6
